# According to ChEMBL document CHEMBL4888484, “Replenishing the malaria drug discovery pipeline: Screening and hit evaluation of the MMV Hit Generation Library 1 (HGL1) against asexual blood stage Plasmodium falciparum ,using a nano luciferase reporter read-out” (2022):
# The campaign covered roughly 150,000 compounds. About 540 (0.36%) showed an effect of 50% or more. The list shows a part of the results.
# Tested on: Plasmodium falciparum
# Experiment: Primary screen in NF54 nanoGlo assay, in single point, at 2uM, 72h; a lower Z score goes with more inhibition
# Format: functional, Erythrocyte
# Conditions: timepoint 72 hour
SMILES,% Inhibition [%],Z score
O=C(NCCc1ccc2c(c1)OCCO2)NCCc1c[nH]c2ccccc12,-9,1.4
Cc1ccc(S(=O)(=O)N2CCN(C(=O)COc3ccccc3)[C@@H]2c2ccccc2)cc1,-4,0.45
O=C(Nc1cccc(N2CCCC2=O)c1)c1ccc(-n2cnnn2)cc1,-19,2.52
O=S(=O)(c1ccc2c(c1)CCC2)N1CCC[C@H](CCc2noc(-c3ccccn3)n2)C1,2,-0.37
CC1(C)c2[nH]c3ccccc3c2C[C@H]2C(=O)N(Cc3ccncc3)CC(=O)N21,-9,1.22
Cc1ccc2nc(CN3CCN(c4ncc[nH]c4=O)CC3)cn2c1,-5,1.05
COCC(C)(C)C(=O)Nc1ncccc1O,-12,1.65
FC(F)(F)Oc1ccc(Cn2ccnc2-c2cccnc2)cc1,0,0.04
O=C(NS(=O)(=O)C[C@H]1CCOC1)c1cc(C2CCCCC2)n[nH]1,-5,0.68
O=C(Nc1ccc(Oc2ccccc2)cc1)C1CCN(S(=O)(=O)Cc2ccccc2Cl)CC1,-6,1.19
C[C@@H](NC(=O)c1ccccc1)c1onc(-c2cccnc2)c1C(=O)O,14,-1.61
CCN1C[C@@H](CN(C)C(=O)c2cn(C/C=C/c3ccccc3)nn2)CC1=O,-4,0.44
Fc1cccc(-c2nccn2CCCc2ccncc2)c1F,-7,0.92
CC[C@H](NCc1ccccc1OCCO)c1nc(C)c(C)s1,7,-1.47
COc1cc(C)c(S(=O)(=O)N(Cc2ccccn2)C2CC2)c(C)c1,-2,0.4
COc1ccc(-c2cn3nc4c(nc3n2)CCCC4)cc1,9,-1.01
O=C(NCCn1nc(C(F)(F)F)cc1C1CC1)c1cccnc1,-13,1.72
CCOCCN1C[C@]23C=C[C@H](O2)C(C(=O)N2CCC(F)(F)CC2)C3C1=O (stereo partly specified),-9,1.86
CCOCCC(=O)Nc1nn(-c2ccc(F)cc2)c2cccc(N3CCOC3=O)c12,-23,2.13
CC[C@@](C)(CCNC(=O)N1CCS(=O)(=O)CC1)c1ccccc1OC,2,-0.31
Cc1noc(COc2ccc(CCO)cc2-n2nc3ccccc3n2)n1,-12,1.25
CCN(Cc1nc2cc(Cl)ccc2c(=O)[nH]1)C(=O)CCc1ccccc1F,-4,0.3
Cc1nccn1C1CN(C(=O)c2cccs2)C1,8,-1.28
CC(C)c1noc(C(C)N2CCC(OCCN3CCCCC3)C2)n1 (stereo unspecified),-14,1.39
CCc1cc(C(=O)NC[C@H]2CCC[C@@H](CO)C2)oc1CC,-44,5.12
Cc1cccc(N2CCN(S(=O)(=O)c3cc(-c4nc(C)c(C)s4)cs3)CC2)c1,-8,1.12
N[C@H]1CN(C(=O)c2ccnc(-c3ccccn3)n2)CC12CCC2,-3,0.41

SMILES,% Inhibition [%],Z score
Cc1ccc(CN(C(N)=O)[C@H]2CCc3ccccc32)cc1,-9,1.75
O=C1N(Cc2cc(Cl)ccc2F)c2ccccc2NC12CCNCC2,-11,2.19
O=C(c1ccc(N2CCCCS2(=O)=O)cc1)N1CCN(C(=O)c2ccco2)CC1,8,-1.03
Cc1ccc(CN2CC[C@H](CNC(=O)C3CCN(c4nc5ccc(C)cc5[nH]4)CC3)C2)cc1,-3,0.45
O=C1CN(C2CCCCCC2)C2CS(=O)(=O)CC2N1c1ccc(Br)cc1 (stereo unspecified),-13,1.65
Cc1cccc(N2CCN(C(=O)NC[C@@H](c3ccco3)N3CCCC3)CC2)c1C,10,-1.36
CC(=O)N[C@@H](C)C(=O)N1CCc2ccncc21,1,-0.14
C[C@@H](C(=O)N(C)CC(C)(CO)CO)c1ccc(Br)cc1,-11,1.01
CC(C)Cn1c(CC2(CC(=O)N[C@H]3CC[C@H](O)CC3)CCCC2)nc2cccnc21,-7,0.91
Cc1nn(CC(=O)n2nc(C)c(Cl)c2C)c(C)c1Cl,-37,4.3
CN1C(=O)CC(CC(=O)N(C)C2CCOC2)(c2ccc(-c3ccccc3)cc2)C1=O (stereo unspecified),9,-1.19
COc1cccc(CN2CCC[C@@]3(CCN(c4ncccc4C(N)=O)C3)C2)c1OC,9,-1.1
O=C(NCC1(O)CCCCC1)c1ccc(-c2ccncc2F)cc1,-14,1.37
Cc1noc(C)c1CN1C[C@H]2CC[C@@H](C1)N(C(=O)CCc1ccccn1)C2,-12,1.32
Cc1ccc(Cn2c(C)cc(=O)c(C(=O)N3CCN(C/C=C/c4ccccc4)CC3)c2C2CC2)o1,3,-0.33
COc1ccccc1NC(=O)Nc1ccccc1Cc1ccccc1,-4,0.69
Cn1c(NC(=O)c2ccc(Cl)cc2Cl)c(-c2ccccn2)c(=O)c2ccccc21,5,-0.65
N#Cc1cc(Cl)ccc1S(=O)(=O)N1CC[C@H](N2CCCC2)C1,-4,0.47
O=C1CN(C2CCCC2)C(=O)N1CCCCOc1ccccc1,-10,1.37
CCC(CC)(CNC(=O)C1(C)CCN(C)CC1)OC,-2,0.24
C[C@H]1Cc2ccccc2N1C1=NS(=O)(=O)c2ccccc21,-8,1
Cc1ccc2c(c1)Oc1cc(Cl)c(S(=O)(=O)N3CCc4ccccc4C3)cc1C(=O)N2,-10,1.35
CC(C)(C(N)=O)c1ccc(C2=CCCCC2)cc1,0,-0.05
CN(CC#CC(C)(C)O)Cc1ccccc1,-6,0.77
Cc1ccccc1S(=O)(=O)NCc1nnc(C(=O)Nc2ccccc2F)s1,8,-0.87
Cc1cc(NC(=O)NCC(=O)N2CCCC2)sn1,-24,2.8
